Measured values from the antibiotic and cytotoxicity screens of Wong et al. (2023).
Some of the results follow.

What was measured:
[1] = tested on: HSkMC (human skeletal muscle cells); assay: cytotoxicity call (relative viability < 0.9); conditions: 10 µM
[2] = tested on: HepG2; assay: cytotoxicity call (relative viability < 0.9); conditions: 10 µM
[3] = tested on: S. aureus RN4220; assay: growth inhibition call (relative growth <= 0.2); conditions: 50 µM

Cc1noc(C)c1NC(=O)N(C)C[C@H]1Oc2c(NC(=O)c3ccc(-c4nccs4)cc3)cccc2C(=O)N([C@H](C)CO)C[C@H]1C
inactive: cytotoxicity call [1] | cytotoxicity call [2] | growth inhibition call [3]

Cc1ccc(S(=O)(=O)N(C)C[C@@H]2Oc3ccc(NS(=O)(=O)c4ccc(F)cc4)cc3C(=O)N([C@H](C)CO)C[C@H]2C)cc1
inactive: cytotoxicity call [1] | cytotoxicity call [2] | growth inhibition call [3]

C[C@@H]1CN([C@H](C)CO)C(=O)c2cc(NC(=O)NC3CCCCC3)ccc2O[C@@H]1CN(C)C(=O)Nc1cccc2ccccc12
inactive: cytotoxicity call [1] | cytotoxicity call [2] | growth inhibition call [3]

C[C@H]1CN([C@@H](C)CO)C(=O)c2cc(NC(=O)Nc3cccc4ccccc34)ccc2O[C@H]1CN(C)S(=O)(=O)c1ccc(Cl)cc1
inactive: cytotoxicity call [1] | cytotoxicity call [2] | growth inhibition call [3]

C[C@@H]1CN([C@@H](C)CO)C(=O)c2cccc(NC(=O)c3cnccn3)c2O[C@@H]1CN(C)C(=O)Nc1ccc(F)cc1
inactive: cytotoxicity call [1] | cytotoxicity call [2] | growth inhibition call [3]

Nc1ccc2cc(S(=O)(=O)O)ccc2c1/N=N/c1ccc(/C=C/c2ccc(/N=N/c3c(N)ccc4cc(S(=O)(=O)O)ccc34)cc2S(=O)(=O)O)c(S(=O)(=O)O)c1
inactive: cytotoxicity call [1] | cytotoxicity call [2] | growth inhibition call [3]

C[C@@H]1CCCCO[C@@H](CN(C)C(=O)NC2CCCCC2)[C@H](C)CN([C@H](C)CO)C(=O)c2cc(NC(=O)Cc3ccccc3)ccc2O1
inactive: cytotoxicity call [1] | cytotoxicity call [2] | growth inhibition call [3]

C[C@H](C(=O)O)N1C(=O)c2ccccc2C1=O
inactive: cytotoxicity call [1] | cytotoxicity call [2] | growth inhibition call [3]

CC(C)CC#Cc1ccc2c(c1)O[C@@H](CN(C)CC1CCOCC1)[C@@H](C)CN([C@@H](C)CO)S2(=O)=O
inactive: cytotoxicity call [1] | cytotoxicity call [2] | growth inhibition call [3]

C[C@H](CO)N1C[C@H](C)[C@H](CN(C)C(=O)CN2CCOCC2)Oc2cc(/C=C/c3ccccc3)ccc2S1(=O)=O
inactive: cytotoxicity call [1] | cytotoxicity call [2] | growth inhibition call [3]

COCC#Cc1cnc2c(c1)C(=O)N([C@H](C)CO)C[C@H](C)[C@@H](CN(C)C(=O)Nc1ccc(OC)cc1)O2
inactive: cytotoxicity call [1] | cytotoxicity call [2] | growth inhibition call [3]
